# Assay results: the supplement of paper PMC10037445
# Several values for one entry are separate records, joined by “and”; a condition that tells them apart may be missing. Identical values can stand only once. ± gives the standard deviation of the averaged measurements. Whole data set: some 2,900 compounds, median “IRF Lucia reporter activity, fold change vs agonist alone” near 0.9, cut for the highest 2% near 2.8. The list shows a part of the results.
# Experiments:
# RAW-Dual [1] = experiment: IRF Lucia reporter activity, fold change vs agonist alone; cytotoxicity flag (confluency mask): not cytotoxic; higher = enhanced IRF activity
# Procedure, shortened: (§1)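 RAW-Dual macrophages (50,000 cells/well in DMEM, 384-well plates) received 50 nL of library stock by pin tool, then a PRR agonist 1 h later, and were kept at 37 °C, 5% CO2. After 20 hours, supernatant was read for IRF by QuantiLuc luminescence and for NF-κB by QuantiBlue absorbance at 620 nm. Reporter activity is fold change over agonist-alone wells. Cytotoxic wells had IncuCyte confluency below 70% of agonist controls in both mask sets.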
# RAW-Dual [2] = experiment: IRF Lucia reporter activity, fold change vs agonist alone; higher = enhanced IRF activity; settings: agonist: MPLA (TLR4) […]
# Procedure, shortened: as §1
# RAW-Dual [3] = experiment: IRF Lucia reporter activity, fold change vs agonist alone; cytotoxicity flag (confluency mask): cytotoxic (confluency <70% of control); higher = enhanced IRF activity
# Procedure, shortened: as §1
# [4] = agonist: 3'3'-cGAMP (STING) 10 ug/mL
# [5] = library stock concentration (final ~1000-fold dilution): 2 mM, cytotoxicity flag (confluency mask): not cytotoxic
# [6] = library stock concentration (final ~1000-fold dilution): 10 mM, cytotoxicity flag (confluency mask): not cytotoxic
# [7] = library stock concentration (final ~1000-fold dilution): 10 mM, cytotoxicity flag (confluency mask): cytotoxic (confluency <70% of control)
structure (smiles),measurement,setting,value
O=C1/C(=C/c2cccs2)CC/C1=C\c1cccs1 (library stock concentration (final ~1000-fold dilution): 2 mM),IRF Lucia reporter activity,RAW-Dual [1]; [4],0.868
same,IRF Lucia reporter activity,RAW-Dual [1]; agonist: LPS (TLR4) 0.1 ug/mL,0.91
O=C1/C(=C/c2cccs2)CC/C1=C\c1cccs1,IRF Lucia reporter activity,RAW-Dual [2]; [5],1.19
CC1(C)OC(=O)C=CC2(C)C1CC(=O)C1(C)C2CCC2(C)C(c3ccoc3)OC(=O)C3OC321 (stereo unspecified),IRF Lucia reporter activity,RAW-Dual [2]; [6],1.04
CC1(C)OC(=O)C=CC2(C)C1CC(=O)C1(C)C2CCC2(C)C(c3ccoc3)OC(=O)C3OC321 (stereo unspecified) (library stock concentration (final ~1000-fold dilution): 10 mM),IRF Lucia reporter activity,RAW-Dual [1]; [4],0.757
same,IRF Lucia reporter activity,RAW-Dual [1]; agonist: LPS (TLR4) 0.1 ug/mL,1.07
O=C(Nc1cc(C(F)(F)F)cc(C(F)(F)F)c1)c1cc(Cl)ccc1O (library stock concentration (final ~1000-fold dilution): 10 mM),IRF Lucia reporter activity,RAW-Dual [3]; [4],0.03 and 0.0207
same,IRF Lucia reporter activity,RAW-Dual [3]; agonist: LPS (TLR4) 0.1 ug/mL,3.59 and 3.92
O=C(Nc1cc(C(F)(F)F)cc(C(F)(F)F)c1)c1cc(Cl)ccc1O,IRF Lucia reporter activity,RAW-Dual [2]; [7],3.54 ± 1.7
Cc1cnc(C(=O)NC2CCCCC/C=C\C3CC3(C(=O)NS(=O)(=O)C3CC3)NC(=O)C3CC(Oc4nc5ccccc5c5ccccc45)CN3C2=O)cn1 (stereo unspecified),IRF Lucia reporter activity,RAW-Dual [2]; [6],0.981
Cc1cnc(C(=O)NC2CCCCC/C=C\C3CC3(C(=O)NS(=O)(=O)C3CC3)NC(=O)C3CC(Oc4nc5ccccc5c5ccccc45)CN3C2=O)cn1 (stereo unspecified) (library stock concentration (final ~1000-fold dilution): 10 mM),IRF Lucia reporter activity,RAW-Dual [1]; [4],0.833
same,IRF Lucia reporter activity,RAW-Dual [1]; agonist: LPS (TLR4) 0.1 ug/mL,1.15
COC1CC2CCC(C)C(O)(O2)C(=O)C(=O)N2CCCCC2C(=O)OC(C(C)CC2CCC(OCCO)C(OC)C2)CC(=O)C(C)C=C(C)C(O)C(OC)C(=O)C(C)CC(C)C=CC=CC=C1C (stereo unspecified) (library stock concentration (final ~1000-fold dilution): 10 mM),IRF Lucia reporter activity,RAW-Dual [1]; [4],1.28
same,IRF Lucia reporter activity,RAW-Dual [1]; agonist: LPS (TLR4) 0.1 ug/mL,2.63
COC1CC2CCC(C)C(O)(O2)C(=O)C(=O)N2CCCCC2C(=O)OC(C(C)CC2CCC(OCCO)C(OC)C2)CC(=O)C(C)C=C(C)C(O)C(OC)C(=O)C(C)CC(C)C=CC=CC=C1C (stereo unspecified),IRF Lucia reporter activity,RAW-Dual [2]; [6],3.06
CN(C)C(=O)C(O)C(Cc1ccccc1)NC(=O)c1cc2cc(Cl)ccc2[nH]1 (stereo unspecified),IRF Lucia reporter activity,RAW-Dual [2]; [6],0.647
CN(C)C(=O)C(O)C(Cc1ccccc1)NC(=O)c1cc2cc(Cl)ccc2[nH]1 (stereo unspecified) (library stock concentration (final ~1000-fold dilution): 10 mM),IRF Lucia reporter activity,RAW-Dual [1]; [4],0.315
same,IRF Lucia reporter activity,RAW-Dual [1]; agonist: LPS (TLR4) 0.1 ug/mL,0.547
C=C1CCCC2(C)C=C3OC(=O)C(C)=C3CC12 (stereo unspecified) (library stock concentration (final ~1000-fold dilution): 10 mM),IRF Lucia reporter activity,RAW-Dual [1]; [4],0.957
same,IRF Lucia reporter activity,RAW-Dual [1]; agonist: LPS (TLR4) 0.1 ug/mL,0.665
O=C(O)c1cc(C(F)(F)F)ccc1N1CCC(OCc2ccccn2)C1 (stereo unspecified),IRF Lucia reporter activity,RAW-Dual [2]; [6],1.67
O=C(O)c1cc(C(F)(F)F)ccc1N1CCC(OCc2ccccn2)C1 (stereo unspecified) (library stock concentration (final ~1000-fold dilution): 10 mM),IRF Lucia reporter activity,RAW-Dual [1]; [4],0.681
same,IRF Lucia reporter activity,RAW-Dual [1]; agonist: LPS (TLR4) 0.1 ug/mL,1.88
CC(=O)OC1CCC2(C)C(CCC3(C)C2C(=O)C=C2C4C(C)C(C)CCC4(C)CCC23C)C1(C)C(=O)O (stereo unspecified) (library stock concentration (final ~1000-fold dilution): 10 mM),IRF Lucia reporter activity,RAW-Dual [1]; [4],0.994
same,IRF Lucia reporter activity,RAW-Dual [1]; agonist: LPS (TLR4) 0.1 ug/mL,0.483
CC(C)C[C@H](NC(=O)[C@H](Cc1ccccc1)NC(=O)c1cnccn1)B(O)O,IRF Lucia reporter activity,RAW-Dual [2]; [7],2.29
CC(C)C[C@H](NC(=O)[C@H](Cc1ccccc1)NC(=O)c1cnccn1)B(O)O (library stock concentration (final ~1000-fold dilution): 10 mM),IRF Lucia reporter activity,RAW-Dual [3]; [4],1.12
same,IRF Lucia reporter activity,RAW-Dual [3]; agonist: LPS (TLR4) 0.1 ug/mL,2.41
COC(=O)C1CC2=CC(=O)CCC2(C)C23OC2CC2(C)C(CCC24CCC(=O)O4)C13 (stereo unspecified) (library stock concentration (final ~1000-fold dilution): 2 mM),IRF Lucia reporter activity,RAW-Dual [1]; [4],0.773
same,IRF Lucia reporter activity,RAW-Dual [1]; agonist: LPS (TLR4) 0.1 ug/mL,0.56
COC(=O)C1CC2=CC(=O)CCC2(C)C23OC2CC2(C)C(CCC24CCC(=O)O4)C13 (stereo unspecified),IRF Lucia reporter activity,RAW-Dual [2]; [5],1.19
CS(=O)(=O)c1ccc(C(=O)Nc2ccc(Cl)c(-c3ccccn3)c2)c(Cl)c1,IRF Lucia reporter activity,RAW-Dual [2]; [6],1.01
CS(=O)(=O)c1ccc(C(=O)Nc2ccc(Cl)c(-c3ccccn3)c2)c(Cl)c1 (library stock concentration (final ~1000-fold dilution): 10 mM),IRF Lucia reporter activity,RAW-Dual [1]; [4],0.827
same,IRF Lucia reporter activity,RAW-Dual [1]; agonist: LPS (TLR4) 0.1 ug/mL,1.01
COc1ccc(-c2coc3cc(O)ccc3c2=O)cc1,IRF Lucia reporter activity,RAW-Dual [2]; [6],1.13
COc1ccc(-c2coc3cc(O)ccc3c2=O)cc1 (library stock concentration (final ~1000-fold dilution): 10 mM),IRF Lucia reporter activity,RAW-Dual [1]; [4],0.992
same,IRF Lucia reporter activity,RAW-Dual [1]; agonist: LPS (TLR4) 0.1 ug/mL,1.02
CN1CCN(S(=O)(=O)c2ccc(-c3cnc(N)c(C(=O)Nc4cccnc4)n3)cc2)CC1,IRF Lucia reporter activity,RAW-Dual [2]; [6],0.484
CN1CCN(S(=O)(=O)c2ccc(-c3cnc(N)c(C(=O)Nc4cccnc4)n3)cc2)CC1 (library stock concentration (final ~1000-fold dilution): 10 mM),IRF Lucia reporter activity,RAW-Dual [1]; [4],0.198
same,IRF Lucia reporter activity,RAW-Dual [1]; agonist: LPS (TLR4) 0.1 ug/mL,0.414
Nc1ccc2ncnc(NCCc3ccc(Oc4ccccc4)cc3)c2c1 (library stock concentration (final ~1000-fold dilution): 10 mM),IRF Lucia reporter activity,RAW-Dual [1]; agonist: LPS (TLR4) 0.1 ug/mL,1.24 and 0.86
